Test results from article PMC12820563, “FoxP3 forms a head-to-head dimer in vivo and stabilizes its multimerization on adjacent microsatellites”.
The list shows a part of the results.

Target: T1, MBP-FoxP1dN (Mus musculus, UniProt P58462 326-579)
T1 sequence: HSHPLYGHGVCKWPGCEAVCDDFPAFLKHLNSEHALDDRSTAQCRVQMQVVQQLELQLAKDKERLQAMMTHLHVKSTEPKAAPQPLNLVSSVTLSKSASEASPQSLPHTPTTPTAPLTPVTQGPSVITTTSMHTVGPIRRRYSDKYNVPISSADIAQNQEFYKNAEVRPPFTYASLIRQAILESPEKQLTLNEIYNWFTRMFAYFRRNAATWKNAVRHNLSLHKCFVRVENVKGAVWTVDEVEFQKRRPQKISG
Test: PD-seq (MBP pull-down with sequencing); 20 mM Tris-HCl pH 7.5, 100 mM NaCl, 1.5 mM MgCl2, 0.4 uM protein, 0.1 uM dsDNA library, 30 min, room temperature, amylose pull-down; high values mean tight binding
Conditions: protein: recombinant; tags: His6-MBP; chain copies: 2; dsDNA, one strand shown
Procedure, shortened: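 Mouse FoxP3 or FoxP1 fragment lacking the N-terminus, His6-MBP-tagged and expressed in E. coli, was incubated at 0.4 µM with 0.1 µM Klenow-filled degenerate double-stranded DNA library for 30 min at room temperature in Tris pH 7.5 buffer with NaCl and MgCl2. Complexes captured on amylose resin were washed three times and their DNA sequenced on Illumina. Binding is reads-per-million enrichment of pull-down over input, replicates pooled.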

Sequence	binding signal
GATGATTGTTCTCCCAGCTGATGAATTTGGTCTTTCGAGTAAACAAATTTTCCTAATCTTTCTGTTCAAGCGCCATCTAC	0.928 RPM ratio (pull-down/input)
GATGATTGTTCTCCCAGCTGATGAATTTCAATTCTCGAGTAAACAAATTTTCCTAATCTTTCTGTTCAAGCGCCATCTAC	0.85 RPM ratio (pull-down/input)
GATGATTGTTCTCCCAGCTGATGAATTAGTTCTATCGAGTAAACAAATTTTCCTAATCTTTCTGTTCAAGCGCCATCTAC	0.895 RPM ratio (pull-down/input)
GATGATTGTTCTCCCAGCTGATGAATTCATCATCTCGAGTAAACAAATTTTCCTAATCTTTCTGTTCAAGCGCCATCTAC	0.841 RPM ratio (pull-down/input)
GATGATTGTTCTCCCAGCTGATGAATTGAGGGCGTCGAGTAAACAAATTTTCCTAATCTTTCTGTTCAAGCGCCATCTAC	0.822 RPM ratio (pull-down/input)
GATGATTGTTCTCCCAGCTGATGAATTCACAAGCTCGAGTAAACAAATTTTCCTAATCTTTCTGTTCAAGCGCCATCTAC	0.878 RPM ratio (pull-down/input)
GATGATTGTTCTCCCAGCTGATGAATTTCGAGCATCGAGTAAACAAATTTTCCTAATCTTTCTGTTCAAGCGCCATCTAC	0.954 RPM ratio (pull-down/input)
GATGATTGTTCTCCCAGCTGATGAATTCTAATGATCGAGTAAACAAATTTTCCTAATCTTTCTGTTCAAGCGCCATCTAC	0.963 RPM ratio (pull-down/input)
GATGATTGTTCTCCCAGCTGATGAATTAAATGCTTCGAGTAAACAAATTTTCCTAATCTTTCTGTTCAAGCGCCATCTAC	1.15 RPM ratio (pull-down/input)
GATGATTGTTCTCCCAGCTGATGAATTAATAAGATCGAGTAAACAAATTTTCCTAATCTTTCTGTTCAAGCGCCATCTAC	1.03 RPM ratio (pull-down/input)
GATGATTGTTCTCCCAGCTGATGAATTTCGGATCTCGAGTAAACAAATTTTCCTAATCTTTCTGTTCAAGCGCCATCTAC	0.769 RPM ratio (pull-down/input)
GATGATTGTTCTCCCAGCTGATGAATTATAGTCATCGAGTAAACAAATTTTCCTAATCTTTCTGTTCAAGCGCCATCTAC	1.06 RPM ratio (pull-down/input)
GATGATTGTTCTCCCAGCTGATGAATTGGGCGCGTCGAGTAAACAAATTTTCCTAATCTTTCTGTTCAAGCGCCATCTAC	1.01 RPM ratio (pull-down/input)
GATGATTGTTCTCCCAGCTGATGAATTGTTATTCTCGAGTAAACAAATTTTCCTAATCTTTCTGTTCAAGCGCCATCTAC	2.03 RPM ratio (pull-down/input)
GATGATTGTTCTCCCAGCTGATGAATTAAGCGCATCGAGTAAACAAATTTTCCTAATCTTTCTGTTCAAGCGCCATCTAC	1.27 RPM ratio (pull-down/input)
GATGATTGTTCTCCCAGCTGATGAATTAGGGGTATCGAGTAAACAAATTTTCCTAATCTTTCTGTTCAAGCGCCATCTAC	0.939 RPM ratio (pull-down/input)
GATGATTGTTCTCCCAGCTGATGAATTCGCGAACTCGAGTAAACAAATTTTCCTAATCTTTCTGTTCAAGCGCCATCTAC	0.828 RPM ratio (pull-down/input)
GATGATTGTTCTCCCAGCTGATGAATTGGGAAAATCGAGTAAACAAATTTTCCTAATCTTTCTGTTCAAGCGCCATCTAC	1.02 RPM ratio (pull-down/input)
GATGATTGTTCTCCCAGCTGATGAATTCTGCCCCTCGAGTAAACAAATTTTCCTAATCTTTCTGTTCAAGCGCCATCTAC	0.764 RPM ratio (pull-down/input)
GATGATTGTTCTCCCAGCTGATGAATTACGAGGATCGAGTAAACAAATTTTCCTAATCTTTCTGTTCAAGCGCCATCTAC	0.932 RPM ratio (pull-down/input)

Sequence	binding signal
GATGATTGTTCTCCCAGCTGATGAATTGCGAGGGTCGAGTAAACAAATTTTCCTAATCTTTCTGTTCAAGCGCCATCTAC	0.883 RPM ratio (pull-down/input)
GATGATTGTTCTCCCAGCTGATGAATTCTAGCCTTCGAGTAAACAAATTTTCCTAATCTTTCTGTTCAAGCGCCATCTAC	0.921 RPM ratio (pull-down/input)
GATGATTGTTCTCCCAGCTGATGAATTTAACAAATCGAGTAAACAAATTTTCCTAATCTTTCTGTTCAAGCGCCATCTAC	1.19 RPM ratio (pull-down/input)
GATGATTGTTCTCCCAGCTGATGAATTACGGTTTTCGAGTAAACAAATTTTCCTAATCTTTCTGTTCAAGCGCCATCTAC	1.01 RPM ratio (pull-down/input)
GATGATTGTTCTCCCAGCTGATGAATTCGATGGTTCGAGTAAACAAATTTTCCTAATCTTTCTGTTCAAGCGCCATCTAC	0.885 RPM ratio (pull-down/input)
GATGATTGTTCTCCCAGCTGATGAATTTCTGATGTCGAGTAAACAAATTTTCCTAATCTTTCTGTTCAAGCGCCATCTAC	1.23 RPM ratio (pull-down/input)
GATGATTGTTCTCCCAGCTGATGAATTGCATTCATCGAGTAAACAAATTTTCCTAATCTTTCTGTTCAAGCGCCATCTAC	1.46 RPM ratio (pull-down/input)
GATGATTGTTCTCCCAGCTGATGAATTGACCACTTCGAGTAAACAAATTTTCCTAATCTTTCTGTTCAAGCGCCATCTAC	0.948 RPM ratio (pull-down/input)
GATGATTGTTCTCCCAGCTGATGAATTGAGATTGTCGAGTAAACAAATTTTCCTAATCTTTCTGTTCAAGCGCCATCTAC	1.05 RPM ratio (pull-down/input)
GATGATTGTTCTCCCAGCTGATGAATTAAACACATCGAGTAAACAAATTTTCCTAATCTTTCTGTTCAAGCGCCATCTAC	1.45 RPM ratio (pull-down/input)
GATGATTGTTCTCCCAGCTGATGAATTAATGAACTCGAGTAAACAAATTTTCCTAATCTTTCTGTTCAAGCGCCATCTAC	0.838 RPM ratio (pull-down/input)
GATGATTGTTCTCCCAGCTGATGAATTTAAGCACTCGAGTAAACAAATTTTCCTAATCTTTCTGTTCAAGCGCCATCTAC	0.988 RPM ratio (pull-down/input)
GATGATTGTTCTCCCAGCTGATGAATTAGGCGCATCGAGTAAACAAATTTTCCTAATCTTTCTGTTCAAGCGCCATCTAC	1.26 RPM ratio (pull-down/input)
GATGATTGTTCTCCCAGCTGATGAATTTTCCAGTTCGAGTAAACAAATTTTCCTAATCTTTCTGTTCAAGCGCCATCTAC	0.874 RPM ratio (pull-down/input)
GATGATTGTTCTCCCAGCTGATGAATTGGGGGTCTCGAGTAAACAAATTTTCCTAATCTTTCTGTTCAAGCGCCATCTAC	0.83 RPM ratio (pull-down/input)
GATGATTGTTCTCCCAGCTGATGAATTTAGAAACTCGAGTAAACAAATTTTCCTAATCTTTCTGTTCAAGCGCCATCTAC	0.958 RPM ratio (pull-down/input)
GATGATTGTTCTCCCAGCTGATGAATTTAGGGAATCGAGTAAACAAATTTTCCTAATCTTTCTGTTCAAGCGCCATCTAC	0.951 RPM ratio (pull-down/input)
GATGATTGTTCTCCCAGCTGATGAATTTCGTCGTTCGAGTAAACAAATTTTCCTAATCTTTCTGTTCAAGCGCCATCTAC	0.912 RPM ratio (pull-down/input)
GATGATTGTTCTCCCAGCTGATGAATTTTCCCGGTCGAGTAAACAAATTTTCCTAATCTTTCTGTTCAAGCGCCATCTAC	0.777 RPM ratio (pull-down/input)
GATGATTGTTCTCCCAGCTGATGAATTGATAGTATCGAGTAAACAAATTTTCCTAATCTTTCTGTTCAAGCGCCATCTAC	1.12 RPM ratio (pull-down/input)
